# Laboratory results reported in the supplement of paper PMC3334620.
# The full ranking holds about 33,000 sequences; the median of “E-score (-0.5 to 0.5)” is about -0.053, and the highest 2% start at about 0.37. This is one part of the list.
# Molecular target: Hap1 (UniProt P0CE41)
# Experiment: PBM E-score (8-mer binding enrichment) (E-score (-0.5 to 0.5)); higher = stronger / more preferred TF binding; most listed sequences are background and not binding sites
# Conditions: protein concentration: 200 nM; construct: GST-DNA-binding domain
# How it was run: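 Yeast transcription factors, full-length or as DNA-binding domains, were expressed with a GST tag using PURExpress in vitro transcription/translation. At about 100-200 nM they were applied to universal all-10-mer Agilent arrays, double-stranded by primer extension on fresh or once-stripped slides. Fluorescent anti-GST detected bound protein, and masliner normalised the scans. E-scores for ungapped eight-base words, pooled with reverse complements, came from the Universal PBM Analysis Suite.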
# UniProt P0CE41, sequence (P0CE41 whole entry): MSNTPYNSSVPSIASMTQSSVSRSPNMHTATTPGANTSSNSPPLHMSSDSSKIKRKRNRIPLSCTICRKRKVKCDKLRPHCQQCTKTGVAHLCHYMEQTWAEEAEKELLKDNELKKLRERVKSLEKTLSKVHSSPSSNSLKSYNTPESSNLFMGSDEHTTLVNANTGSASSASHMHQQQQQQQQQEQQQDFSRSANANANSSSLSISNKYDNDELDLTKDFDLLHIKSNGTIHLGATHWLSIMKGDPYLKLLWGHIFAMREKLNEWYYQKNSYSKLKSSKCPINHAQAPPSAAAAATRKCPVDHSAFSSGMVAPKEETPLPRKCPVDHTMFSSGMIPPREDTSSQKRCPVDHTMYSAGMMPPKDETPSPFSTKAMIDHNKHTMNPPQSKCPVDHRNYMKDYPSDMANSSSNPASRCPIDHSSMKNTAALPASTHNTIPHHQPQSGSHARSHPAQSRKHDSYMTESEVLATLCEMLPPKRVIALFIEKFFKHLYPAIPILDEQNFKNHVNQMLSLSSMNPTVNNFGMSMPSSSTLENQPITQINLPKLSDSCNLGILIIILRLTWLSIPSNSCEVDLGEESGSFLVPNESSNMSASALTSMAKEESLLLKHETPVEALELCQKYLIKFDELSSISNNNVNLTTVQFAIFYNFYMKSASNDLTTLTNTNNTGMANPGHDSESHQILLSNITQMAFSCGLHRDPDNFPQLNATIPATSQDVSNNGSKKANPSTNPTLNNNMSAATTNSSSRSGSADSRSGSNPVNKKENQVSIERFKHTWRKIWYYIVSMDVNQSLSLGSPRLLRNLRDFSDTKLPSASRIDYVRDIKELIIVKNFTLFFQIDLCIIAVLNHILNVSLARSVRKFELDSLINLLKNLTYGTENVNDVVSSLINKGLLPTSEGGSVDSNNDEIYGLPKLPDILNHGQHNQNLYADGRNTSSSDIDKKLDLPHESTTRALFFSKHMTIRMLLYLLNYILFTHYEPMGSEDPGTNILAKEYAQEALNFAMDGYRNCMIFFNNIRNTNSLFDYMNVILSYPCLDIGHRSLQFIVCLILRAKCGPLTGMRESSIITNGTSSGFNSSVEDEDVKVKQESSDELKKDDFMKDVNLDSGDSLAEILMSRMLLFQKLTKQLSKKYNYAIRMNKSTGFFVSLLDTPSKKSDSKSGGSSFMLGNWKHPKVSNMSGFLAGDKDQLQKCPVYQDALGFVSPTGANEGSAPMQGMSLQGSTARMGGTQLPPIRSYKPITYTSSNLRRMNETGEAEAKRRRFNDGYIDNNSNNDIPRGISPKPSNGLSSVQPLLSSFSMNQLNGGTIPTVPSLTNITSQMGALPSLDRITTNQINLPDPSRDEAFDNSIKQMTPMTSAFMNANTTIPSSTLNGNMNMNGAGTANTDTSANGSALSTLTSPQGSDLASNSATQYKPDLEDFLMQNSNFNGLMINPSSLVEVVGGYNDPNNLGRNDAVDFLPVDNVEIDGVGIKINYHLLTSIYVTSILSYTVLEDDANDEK
row,Sequence,PBM E-score
1,CTAGGTAA,-0.271
2,ACCGCTAG,-0.0654
3,AAACGAGG,-0.115
4,ACACGTGA,-0.0908
5,ACCTGGTG,-0.0298
6,AAAGGAGT,0.0715
7,GGTCCAAC,0.13
8,AATCGCGG,0.192
9,CGTCAGGA,-0.255
10,GACTGAAC,-0.134
11,GATGTACA,0.00013
12,CACCTGCC,-0.0739
13,AGATGTAT,-0.235
14,ACAGAATC,-0.0649
15,ACGCCCGC,0.183
16,AACTTTCG,-0.00132
17,GATGACAC,-0.0914
18,CAACGATG,-0.227
19,AATGGATA,-0.0421
20,GTCTGTCA,0.0217
21,CCCTCTGA,-0.0688
22,AGGAAAAG,-0.074
23,CATCGTCA,-0.284
24,GTGGGCCA,-0.0535
25,GTTCAGCA,-0.244

row,Sequence,PBM E-score
1,ATCGAGGC,-0.191
2,ACTAGAGT,-0.234
3,AATCTGCG,0.263
4,AACAGTAA,-0.19
5,CCCTTTAC,0.00221
6,AAAAAGTA,-0.103
7,ACAGCTCT,-0.31
8,ACTGTTAA,-0.0464
9,CTCTAGAG,-0.237
10,CATTAGGA,-0.265
11,GGGTGGAA,0.0892
12,GGTCGTAC,0.145
13,TATTAAAA,0.0552
14,GAAGACTC,-0.18
15,ACCGCGGT,0.277
16,CCCTTCCG,0.209
17,ATATATCC,0.399
18,AGGTAGAT,-0.132
19,CTATCCTC,-0.0805
20,ATATCGGC,0.455
21,TACCAGTA,-0.0535
22,GGAAGTAC,0.295
23,GTGCTGAA,-0.125
24,GTCCCGAC,0.243
25,ACCGACGA,0.295

row,Sequence,PBM E-score
1,CCCAACTC,0.149
2,CAAGGTTC,-0.0642
3,AAAACCTT,0.0357
4,GACAAGAA,0.0641
5,GACGTCGC,-0.208
6,CATGGGCC,0.0341
7,AACGCGAT,0.187
8,ATTAGAAT,-0.0438
9,CGCCAGAG,-0.0599
10,CTGCAAAA,-0.215
11,ACGCATTG,-0.134
12,ATTACAGC,-0.119
13,AAAAGATG,-0.198
14,CAGAACCA,-0.328
15,CCGAGATC,0.36
16,GATCGTAA,-0.154
17,ACATATTA,-0.0822
18,CTGGTAAG,-0.216
19,AGGTTTGA,-0.0406
20,AAGAGGAA,-0.224
21,GATGCGCA,-0.0228
22,GGCGGTAC,0.0136
23,ATGTGTGG,-0.0579
24,TCAGCGCA,-0.0852
25,AGACAACA,-0.0316

row,Sequence,PBM E-score
1,TCTCTCAA,-0.0191
2,GGAGCGTA,0.0997
3,ACAAATAT,0.0379
4,AAACTAAC,-0.087
5,ATTAGTCC,0.255
6,AAGACACC,0.126
7,ACTCGTTA,-0.161
8,GGTGTAGA,0.044
9,AGCACCGG,0.292
10,AATAAAAT,-0.2
11,ATCTCCAC,0.168
12,GCCTGGCA,-0.263
13,GATTCCCA,-0.0361
14,AAGCGTTC,-0.297
15,AGCATCCT,-0.0258
16,AGACATCT,-0.0923
17,AAAGCTTA,-0.199
18,GAGCATAC,-0.048
19,ACAACCAA,-0.225
20,CGAATTCC,0.168
21,AGTCCCAC,-0.263
22,ATGCAATA,-0.249
23,CGAAATAA,0.182
24,GCAACAAC,-0.117
25,TCACTTCA,-0.115

row,Sequence,PBM E-score
1,GGGAGGAC,-0.0255
2,CGGACACA,0.346
3,ACCGAAGT,0.17
4,CCCTCAGA,-0.334
5,ATGCCTCC,-0.0554
6,AATAGTCC,0.18
7,GAACCCCC,-0.0311
8,AATTTCCT,0.0207
9,AGACTATA,-0.0611
10,CAGGATCC,-0.0214
11,CACGGACG,0.331
12,CGCTTGCC,0.0248
13,TTAGAGAA,-0.312
14,AGTAAACC,0.0884
15,CGACGTCA,-0.018
16,CAATTAAA,-0.0462
17,ACACGAAC,-0.0394
18,CGTTTCAC,-0.0243
19,CACTAACA,-0.0964
20,ATCGTCAT,-0.154
21,CCCGTACG,0.111
22,CCTGCCTC,-0.223
23,ACGACTGG,-0.019
24,CCTTCAAC,-0.282
25,CGGGGCAA,0.198

row,Sequence,PBM E-score
1,GCTTGGCC,0.00907
2,CTAGAATC,-0.144
3,CTGTCACC,-0.112
4,CATGTCAG,-0.282
5,CTTTAAAG,-0.156
6,GATCAAAC,-0.0316
7,AGTGAGCC,-0.0809
8,AGTTGACG,-0.118
9,GAAGCCTA,-0.0624
10,TCAGCCCA,-0.077
11,CATCACTC,-0.0906
12,ACGTCTTA,-0.324
13,GCTAAAAA,-0.191
14,AGAATCTG,0.0171
15,CACGCATA,-0.245
16,CAGAGTAC,-0.2
17,CGCTGCCG,0.00047
18,GACGGGCC,0.142
19,TAACTAAA,-0.0154
20,CCGCGGCC,0.3
21,CAACGCTG,-0.075
22,TGCCTAAA,-0.195
23,AGCGTTTA,0.0549
24,ACTAGGTG,-0.179
25,GAAGTGAA,-0.0198

row,Sequence,PBM E-score
1,GTCCGCTA,0.37
2,AGCGCCCA,-0.297
3,ATTAGGTA,-0.235
4,GCGCCGCA,0.214
5,GCGCATAA,-0.0289
6,ATCTTACC,0.0746
7,GCATAGGA,-0.136
8,ATCTCCCA,0.0357
9,AATATCCT,-0.0321
10,CCGGTCAG,0.315
11,GTCCATAA,-0.17
12,ATCCGGTC,0.329
13,GGGGCAAA,0.144
14,GCCGAAGA,0.244
15,ACTGCAAC,-0.233
16,GCCTAGCA,-0.266
17,CATCTAAA,0.0278
18,AAATGCCT,-0.13
19,GACATGTA,0.0382
20,CTGGGCTC,-0.134
21,ACTTAACT,-0.00446
22,CTCGGGCC,0.329
23,CAATGGAC,-0.0716
24,CCCAGACC,0.0135
25,CGAGTCCA,-0.0732

row,Sequence,PBM E-score
1,GAGCGAAA,0.126
2,ATTTAGCG,0.146
3,ACCACAAC,-0.039
4,ACTGCATA,-0.112
5,CCGCCCAG,0.166
6,GACTGCTA,-0.119
7,CACACTAA,-0.141
8,GACCGTGC,-0.00251
9,AGGCTGAA,-0.0986
10,GTGAGCGA,-0.052
11,CAGGAGCG,-0.0395
12,CCGTCTCC,0.126
13,AAGGGTGA,-0.088
14,ACTCGTAT,-0.199
15,AGAGACCC,-0.165
16,GATAGCAC,-0.0698
17,CAGGCATA,-0.143
18,CGGAACAG,0.257
19,GAAGCCGC,0.167
20,TCCCACCA,-0.121
21,GACTGCTC,-0.065
22,AAGTACGA,0.0847
23,GGGACGGA,0.227
24,AGTGCTCC,0.0294
25,AACCGATT,0.263

row,Sequence,PBM E-score
1,CGAACCAC,0.184
2,ATGTATCA,0.0121
3,GAGTAATC,0.0296
4,GCTGGACC,0.0549
5,GTAAATCA,0.132
6,AAAATGTT,-0.235
7,AGAATCAG,0.0289
8,AAGGGCAG,-0.138
9,ACAGTAAA,-0.0787
10,GGATTGGA,-0.0689
11,CGACTTAC,0.071
12,GAGTGACC,-0.064
13,GGCAATTA,0.202
14,ATCGGCTA,0.32
15,TATAACGA,-0.134
16,CCCACCTA,-0.216
17,ACTAAACC,0.212
18,ACGAGTGC,-0.0497
19,CCGTTGAA,0.0341
